# Some structures have more than one record in an assay (separate samples or runs), and their calls can disagree.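 Plates (96-well) were seeded with cells, treated with compound at one concentration, and incubated for 48 hours before percent growth was determined.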 The source holds more than one record for some entries. This is not the full list of results. There may be further records. Rule for the calls: active = growth percent below 10; inactive = the rest. This drug was run again and again over the years, at the concentration stated with the values; each value is one run. Brackets with × count equal records among those shown.
# Test system: CAKI-1 renal
# Test: NCI-60 one-dose screen, 48 h (100 = growth as untreated, 0 = no growth, -100 = all killed)
smiles,measurement,setting,value
COc1cccc2c1C(=O)c1c(O)c3c(c(O)c1C2=O)C[C@@](O)(C(=O)CO)C[C@@H]3OC1CC(N)C(O)C(C)O1 (stereo not given in full),growth,"0.25 µM, runs of 2009","inactive: 58.4, 64, 57.9, 53.1, 73.1, 69.1, 83, 85.7, 76.8, 63.8, 56.6, 63.6, 56.2, 52.1, 63.4, 63.9, 66.8, 53.6, 65.1, 62.1 (2×), 65.7, 74.4, 69.7 (2×), 71.5, 78, 68.1, 61.3, 71.3 (2×), 65.4 (2×), 37.4, 36.4, 74.7 (2×), 64.2 (2×), 113, 77.6, 70.7 (2×), 78.7, 82.1, 84.1, 84.9 (2×), 88.1, 80.5, 78.8, 81.3 (2×), 90.3, 84.7, 74.9, 73.7, 48.4, 70.2, 64.5, 74.1, 58.2, 55.9, 75.2, 51, 93.4, 79.2, 66.7, 59.4, 79.5, 42, 76, 75.8, 74, 68.6%"
same,growth,"0.25 µM, runs of 2010","inactive: 64.1, 67.3, 53.5, 63, 49.2, 46.5, 59.9 (2×), 46.2, 55.8, 62, 49.3, 65.1, 69.5, 82.4 (3×), 70.6, 58.2, 62.5, 90.7, 53.1, 74.3 (2×), 39.6, 73.2, 73.7, 44, 57.3, 49.4, 64.4, 61.1, 64.9, 53.2, 29, 47.8, 22.7, 62.3, 82, 83.6, 75.1, 67.7, 85.1, 80.2, 86, 82.6, 70.2, 66.3, 60.6, 51.8, 51, 54.9, 52.1, 51.7, 52, 51.3%"
same,growth,"0.25 µM, runs of 2011","inactive: 60.4, 76.3, 80.2, 71.3, 75, 77.6 (2×), 87.6, 81.4 (2×), 72.3, 70.4 (2×), 80.9, 86.2, 82.4, 76.8, 79.2, 78.4, 80.1, 68.6, 72.2, 72.7 (2×), 78.5, 78.2, 74.9 (2×), 80.5, 70.3, 75.2, 88.8, 86.7, 78.8, 83, 81.8, 72.1, 77.4, 84.8, 74.7, 72.9, 82, 63.6, 57.5, 65.1 (2×), 61.2, 62.4, 74.3, 68, 66.7, 58.2, 75.5, 68.7, 61.3, 71.4, 69.5, 70.6, 69.2 (2×), 73.8, 79.7, 77.5, 73.2, 56.9%"
same,growth,"0.25 µM, runs of 2012","inactive: 70.2, 64.9 (2×), 66.8 (2×), 59.4, 77.5, 82.1, 71, 72.2, 69.7, 70 (2×), 64.4, 63.1, 61.3, 63.8 (2×), 63.3 (3×), 60.3 (2×), 67.2, 64.5, 64.1, 65.6, 61.9, 71.6, 75.9 (2×), 77.2, 81.5, 83.4, 81.6 (2×), 82.2, 85.4, 89.8, 87, 89.5, 82 (2×), 81.8, 87.4, 80.6, 62.5 (2×), 61.7, 76.3, 73.5, 72.4, 55.4, 63.7, 50.6, 54, 64.6, 59.2, 55.9 (2×), 50.8, 51.1, 63.2 (2×), 67.4, 43.3, 62, 51.8 (2×), 42.7, 61, 56.8, 41.6, 83.1, 62.9, 83.6%"
same,growth,"0.25 µM, runs of 2013","inactive: 54.6, 53.4, 58.4, 49.4, 62.8 (2×), 66.4, 67.8, 68.1 (2×), 63.4 (2×), 70.1, 69.9, 50.7, 65.6, 60.3 (2×), 69.4, 62.7, 72.1, 55.7, 68.7, 66.2, 62.3, 64.2, 63.8, 60.7, 55.9, 62.9 (2×), 74.1, 79.7, 72.5 (2×), 76.3, 69, 67.5, 66.9, 69.8, 82.2, 87.6, 70.7, 70.2, 69.5, 65.1, 70.5, 74.3, 69.2, 78.7, 73.5, 65.2, 56.7, 63.2, 66.3, 70.8, 71.1, 72.8, 58.3, 64.6, 58.9, 58.1, 67.7, 58, 56.5, 63.9, 69.6, 73.2, 75, 81.2, 79, 75.4, 78.6, 83.3%"
same,growth,"0.25 µM, runs of 2014","inactive: 80.8, 81.9, 79.8 (2×), 79.5, 76.4, 75.7 (2×), 71, 79.6, 84.1 (2×), 57.2, 56.1, 59.4, 61.8, 64.4 (2×), 71.6 (2×), 70.9, 68.6 (2×), 82.6, 71.8, 82.1 (2×), 91.3, 83.5, 83.4, 88, 87.7 (2×), 85.4 (2×), 92, 85.5, 86.4 (2×), 84.6, 89.4, 86.8, 84.8, 52.3, 51.4, 58.9, 56.6, 63.3, 61.2, 88.2, 88.5, 64.3, 64, 66.5, 66.3, 77.5, 80.2, 79.9, 74.7, 77.7, 90.1 (2×), 67.6, 70, 82.3, 74, 71.4, 72.4, 62.1, 65, 64.6 (2×), 69.9, 74.2, 76.3, 74.3, 80, 78.6, 76.2, 77, 80.4, 68.9, 73.9, 72.9, 81.5, 76.1%"
same,growth,"0.25 µM, runs of 2015","inactive: 84.3 (2×), 73.7, 72, 68.7 (2×), 62.6, 59.9, 69.3, 65.9, 69.8, 63, 79, 77, 78.9 (2×), 87.5, 81.6, 79.1 (4×), 75.8, 79.3, 83.7, 84.7, 89.6, 92.4, 94.4, 93.5 (2×), 80.7 (2×), 90.6, 90.9, 58.3, 59.8, 63.7, 70.2, 77.8, 78.7, 75.4, 89.7, 86.6, 67.3, 79.2, 66.5, 81, 85.7, 82.7 (2×), 72.1, 91.8, 81.4, 87.1, 87, 72.4, 71.8 (2×), 78.3, 58, 58.4, 62.8, 64.4, 63.9, 66.8, 74.6, 71.2, 70.9, 70.7, 68, 77.6, 73 (2×), 79.4, 78.6, 80.3, 74, 75.1 (2×), 72.6, 75, 80.2, 74.1, 80.1, 81.1, 78.2%"
same,growth,"0.25 µM, runs of 2016","inactive: 71.1, 68.5, 68.1 (2×), 69.9, 75.6, 79.8, 79.1, 76.3, 83.9, 85.9, 87.5, 76.7, 82.3, 77.2, 79.5, 72.8, 77.1, 71.6, 78.7, 67.7, 67.1, 69.2, 75.9, 73.8%"
same,growth,"0.25 µM, runs of 2017","inactive: 26.1 (2×), 26.9 (2×), 22.3, 24.4, 26.5, 26, 26.4, 29.8, 29.4, 29.9, 31.2, 29.3, 25.4, 28.7, 27.4, 29.2 (2×), 24.9, 25.9, 36.1, 36.7, 32.9, 33.2, 38.3, 39.2, 40, 41.4, 41, 44.4, 46.5, 57.4, 57.3, 62.1, 63.3, 69.9, 68.2, 78.4, 80.6, 31.6, 34.1, 33.5, 24.5, 25.3, 33.3, 30.9, 38.9, 39.6, 40.2, 37.9, 30.7, 37, 37.7, 60.6, 65.7, 66.6, 70.3%"
same,growth,"0.25 µM, runs of 2018","inactive: 66.5, 64, 61.1, 62.8, 62.6, 70.4, 70.3, 27.8, 29.2, 30.4, 48.7, 44.3, 47.3, 58.4, 56.1, 60.7, 55.2, 72.6, 57.3, 59.6, 68.5, 84.7, 29.9 (2×), 25.9, 33.3, 33.9, 26.1, 26.3, 25.1, 25.8 (2×), 47.5, 47.6, 26.5, 35.7, 69.6, 68.9, 27.5 (2×), 28.8, 23.1, 28.7, 32.6, 24.1, 30.5, 25.3, 24.2, 28, 18.9, 11.3, 21.9%"
same,growth,"0.25 µM, runs of 2019","inactive: 16.4, 16.7, 13.2, 26.8, 37.8, 36.4, 34.7, 20.2, 21 (2×), 23.9 (3×), 18.4, 26.6, 29, 65.1, 78.8, 69.5, 66.6, 19.4, 14.4, 15.8, 28.8, 12.4, 25.3, 25.5, 11.1, 11.3, 27.1, 25.2, 19.5, 11.6, 15.1, 14.2, 22, 28.9, 31.7, 32.2, 20.5, 19.9, 36.7, 30.5, 26.5%"
same,growth,"0.25 µM, runs of 2020","inactive: 15.4, 19.8, 19.6, 21.1, 25.3, 16.9, 29.5, 20, 24.9, 26, 23.1, 36.2, 25.2, 55.6, 36.1, 38.8, 22.7, 27.8, 24.6, 35, 39.4%"
same,growth,"0.25 µM, runs of 2021","inactive: 33.9, 38.5, 19.6, 29.3, 39.3, 28.7, 31.6, 27.3, 26.7, 27.9, 29.1, 31.9 (2×), 27.8, 31.2, 21.4, 19.4, 27.1, 20.8 (2×), 22.3, 22.8, 20.6, 20.4, 22.7 (2×), 26.5, 25.3, 26.8, 35.5, 19.1, 17.4, 19.2, 19, 21.9, 24.5, 25.4, 24.2 (2×), 19.8 (2×), 25.9, 11.8, 18.8, 15.3, 14.1, 21.2, 26.3%"
same,growth,"0.25 µM, runs of 2022","active: 6.42%, 6.45% and inactive: 26.5, 25.9, 13.7, 46.2, 52.8, 54.2, 60.3, 59.8 (2×), 72.6, 66.1, 18.3, 14.7, 41.2, 44.9, 24.2, 48, 40.8, 60, 37.4, 56.8, 63.8, 65.6%"
same,growth,"25 µM, runs of 1991","active: -14, -4.81, -3.49, -12, -25.6, -26.7, -9.38, -52.9, -28 (2×), -10.4, 1.21, -8.57, -6.04, -17%"

# — PubChem BioAssay (NCI)
